The record followed here is the supplement of paper PMC6609913.

In the assay the test system is V-C8 (BRCA2-deficient hamster cells). In words: normalised cell viability (fraction of plate median); higher = more viable cells (less toxic). The note with it: 5 µM. The procedure, abridged: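 Library drugs, held as 10 mM stocks in DMSO, were diluted to 5 μM in 100 μl medium and added to 96-well plates of V-C8 hamster cells, either lacking BRCA2 or with BRCA2 restored, 24 h after seeding. Plates ran for 3 days (screen 1) or 6 days (screen 2), alongside solvent-only wells. Viability came from a resazurin readout, median-plate normalised, as the mean of triplicate wells.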

Where a name gives a salt, the structure may show the parent alone. ± gives the standard deviation of the averaged measurements. In all, about 1,300 compounds were measured (“normalised cell viability”: median about 1, lowest 2% from about 0.14 on). Some of the results follow.

As to `CC(C)(C)NCC(O)c1ccc(O)c(CO)c1` (stereo not drawn) [Salbutamol], the normalised cell viability by setting is: (treatment time: 3 days) 1.07 ± 0.084; (treatment time: 6 days) 1.033 ± 0.0092.
Regarding `Cn1c(=O)c2c(ncn2C)n(C)c1=O` [Caffeine], the normalised cell viability was 0.962 ± 0.14 (treatment time: 3 days) and 1.06 ± 0.061 (treatment time: 6 days).
For the compound `Cc1c(OCC(F)(F)F)ccnc1C[S+]([O-])c1nc2ccccc2[nH]1` (stereo not drawn) [Lansoprazole], the normalised cell viability was found to be 1.01 ± 0.035 (treatment time: 3 days) and 0.973 ± 0.052 (treatment time: 6 days).
Compound `O=C(O)CNC(=O)C(CS)Cc1ccccc1` (stereo not drawn) [Thiorphan] came in with a normalised cell viability (treatment time: 3 days) of 0.919 ± 0.046 and a normalised cell viability (treatment time: 6 days) of 0.959 ± 0.1.
As for `Cc1onc(-c2ccccc2)c1C(=O)N[C@@H]1C(=O)N2[C@@H]1SC(C)(C)[C@@H]2C(=O)O` [Oxacillin sodium], the normalised cell viability worked out at 1.06 ± 0.018 (treatment time: 3 days) and 0.831 ± 0.064 (treatment time: 6 days).
For `CN(C)CCCC1(c2ccc(F)cc2)OCc2cc(C#N)ccc21` (stereo not drawn) [Citalopram Hydrobromide], the normalised cell viability (treatment time: 3 days) is 1.05 ± 0.028 and the normalised cell viability (treatment time: 6 days) amounted to 1.02 ± 0.041.
`CCCC(CCC)C(=O)O` [Valproic acid]: the normalised cell viability by setting is: (treatment time: 3 days) 1.05 ± 0.059; (treatment time: 6 days) 0.977 ± 0.033.
On to `CN(C)CCC(c1ccc(Cl)cc1)c1ccccn1` (stereo not drawn) [Chlorpheniramine maleate], for which the normalised cell viability by setting is: (treatment time: 3 days) 1.2 ± 0.21; (treatment time: 6 days) 1.071 ± 0.0096.
With `COc1cc(N)c(Cl)cc1C(=O)NC1CCN(CCCOc2ccc(F)cc2)CC1OC` (stereo not drawn) [Cisapride], the normalised cell viability is, setting by setting: (treatment time: 3 days) 0.889 ± 0.018; (treatment time: 6 days) 0.894 ± 0.066.
With `COC1=CC(=O)C[C@@H](C)[C@]12Oc1c(Cl)c(OC)cc(OC)c1C2=O` [Griseofulvin], the normalised cell viability is 0.754 ± 0.17 (treatment time: 3 days) and 0.858 ± 0.045 (treatment time: 6 days).
With `CCN(CCCc1ccccc1)CCCc1ccccc1` [Alverine citrate salt], the normalised cell viability runs as follows: (treatment time: 3 days) 0.983 ± 0.042; (treatment time: 6 days) 0.993 ± 0.06.
For the compound `CCN(CC)C(=O)N1CCN(C)CC1` [Diethylcarbamazine citrate], the normalised cell viability reads like this: (treatment time: 3 days) 1.09 ± 0.014; (treatment time: 6 days) 1.04 ± 0.057.
The like results for `O=P(O)(O)C(O)(Cc1cccnc1)P(=O)(O)O` [Risedronic acid monohydrate] were, in that order, 1.1 ± 0.043 and 1.04 ± 0.033.
Take `CCCC(C(=O)OCCN(CC)CC)(c1ccccc1)c1ccccc1` [Proadifen hydrochloride]: the normalised cell viability reads like this: (treatment time: 3 days) 0.887 ± 0.037; (treatment time: 6 days) 0.821 ± 0.082.
For the compound `C=CC[N@@+]12CC[C@@]34c5ccccc5N5/C=C6/[C@H]7C[C@H]8[C@@]9(CC[N@@+]8(CC=C)C/C7=C/CO)c7ccccc7N(/C=C(/[C@@H](C[C@@H]31)/C(=C\CO)C2)[C@H]54)[C@@H]69` [Alcuronium chloride], the normalised cell viability amounted to 0.939 ± 0.13 (treatment time: 3 days) and 1.03 ± 0.079 (treatment time: 6 days).
In the same order, the values of `Clc1ccc(COC(Cn2ccnc2)c2ccc(Cl)cc2Cl)cc1` (stereo not drawn) [Econazole nitrate] are 0.938 ± 0.028 and 0.98 ± 0.023.
Consider `Clc1ccccc1C(c1ccccc1)(c1ccccc1)n1ccnc1` [Clotrimazole], for which the normalised cell viability runs as follows: (treatment time: 3 days) 0.292 ± 0.014; (treatment time: 6 days) 0.328 ± 0.029.
For `O=C(O)c1cc(=O)c2c(OCC(O)COc3cccc4oc(C(=O)O)cc(=O)c34)cccc2o1` [Cromolyn disodium salt], the normalised cell viability reads like this: (treatment time: 3 days) 1.01 ± 0.029; (treatment time: 6 days) 1.04 ± 0.024.
Turning to `CCCCOc1ccc(CC(=O)NO)cc1` [Bufexamac], the normalised cell viability was determined as 0.85 ± 0.06 (treatment time: 3 days) and 0.895 ± 0.041 (treatment time: 6 days).
Consider `CC(=O)OC(C)C[N+](C)(C)C` (stereo not drawn) [Methacholine chloride], for which the normalised cell viability worked out at 1.15 ± 0.038 (treatment time: 3 days) and 1.01 ± 0.046 (treatment time: 6 days).
In turn, `C=CCc1ccccc1OCC(O)CNC(C)C` (stereo not drawn) [Alprenolol hydrochloride] gave a normalised cell viability (treatment time: 3 days) of 0.927 ± 0.037 and a normalised cell viability (treatment time: 6 days) of 0.858 ± 0.087.
In the case of `NC[C@H]1CC[C@H](C(=O)O)CC1` [Tranexamic acid], the normalised cell viability is 0.98 ± 0.089 (treatment time: 3 days) and 1.05 ± 0.062 (treatment time: 6 days).
As to `Cc1ccc(O)c([C@H](CCN(C(C)C)C(C)C)c2ccccc2)c1` [Tolterodine tartrate], the normalised cell viability (treatment time: 3 days) amounted to 1.02 ± 0.047 and the normalised cell viability (treatment time: 6 days) stood at 1 ± 0.029.
For the compound `CN(C)CCC(c1ccccc1)c1ccccn1` (stereo not drawn) [Pheniramine maleate], the normalised cell viability was 1.06 ± 0.03 (treatment time: 3 days) and 0.98 ± 0.031 (treatment time: 6 days).
As for `Cc1c(O)cccc1C(=O)N[C@@H](CSc1ccccc1)[C@H](O)CN1C[C@H]2CCCC[C@H]2C[C@H]1C(=O)NC(C)(C)C` [Nelfinavir mesylate], the normalised cell viability was found to be 0.814 ± 0.032 (treatment time: 3 days) and 0.874 ± 0.043 (treatment time: 6 days).
Consider `CCSc1ccc2c(c1)N(CCCN1CCN(C)CC1)c1ccccc1S2` [Thiethylperazine dimalate], for which the normalised cell viability is, setting by setting: (treatment time: 3 days) 0.932 ± 0.029; (treatment time: 6 days) 1.1 ± 0.35.
For `CNCC[C@@H](Oc1cccc2ccccc12)c1cccs1` [(R)-Duloxetine hydrochloride], the normalised cell viability was 0.908 ± 0.057 (treatment time: 3 days) and 0.883 ± 0.092 (treatment time: 6 days).
The like results for `CC(CCc1ccc(O)cc1)NCCc1ccc(O)c(O)c1` (stereo not drawn) [Dobutamine hydrochloride] were, in that order, 1.01 ± 0.031 and 0.976 ± 0.027.
The like results for `Nc1ccc(S(N)(=O)=O)cc1` [Sulfanilamide] were, in that order, 0.9767 ± 0.008 and 0.975 ± 0.021.
In the same order, the values of `CC[C@]12CCCN3CCc4c(n(c5ccccc45)[C@@](O)(C(=O)OC)C1)[C@@H]32` [Vincamine] are 1.02 ± 0.068 and 1.05 ± 0.024.
With `CCC(C)(C)c1ccc(CC(C)CN2C[C@@H](C)O[C@@H](C)C2)cc1` (stereo partly drawn) [Amorolfine hydrochloride], the normalised cell viability (treatment time: 3 days) turned out to be 0.991 ± 0.05 and the normalised cell viability (treatment time: 6 days) was 1.06 ± 0.14.
As for `CNC1(C)C2CCC(C2)C1(C)C` (stereo not drawn) [Mecamylamine hydrochloride], the normalised cell viability reads like this: (treatment time: 3 days) 0.936 ± 0.046; (treatment time: 6 days) 0.952 ± 0.053.
The like results for `Cn1c(=O)c2c(ncn2CC(O)CO)n(C)c1=O` (stereo not drawn) [Diprophylline] were, in that order, 1.06 ± 0.098 and 1 ± 0.022.
The like results for `NC(=O)c1cccnc1` [Nicotinamide] were, in that order, 0.975 ± 0.033 and 1.12 ± 0.066.
